Results: PubChem BioAssay AID493208 (National Center for Advancing Translational Sciences (NCATS), 2011)
The campaign covered roughly 44,000 compounds. About 340 (0.77%) were called active. Not shown: some 5% with an inconclusive outcome. Calls come from the whole dose curve; as a rule, active = well fitted inhibition curve with a large enough effect; inconclusive = small, poorly fitted or top-dose-only effect; inactive = flat fitted curve, though single readings scatter. The list shows a part of the results.

Assay: Acumen qHTS Assay for Inhibitors of the mTORC1 Signaling Pathway in MEF (Tsc2-/-, p53-/-) Cells: Sytravon;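 note: plate controls were DMSO for no effect and rapamycin for full effect; nearly all actives have a fitted effect of over 50% in size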
Conditions: phospho-rpS6 immunofluorescence/PI, 24 h; series mostly up to 38.3 µM; activity change, negative = inhibition: at the top concentration
Procedure, shortened: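 Readout is phospho-S6 Alexa 488 signal normalized to PI per well, reported as % active cells with thresholds set from rapamycin (7.5 nM) and DMSO controls. Cells: Tsc2-/-, p53-/- MEFs, 24 hrs compound at 37 C; PI cell number serves as viability.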

| SMILES | activity change, negative = inhibition |
| --- | --- |
| Cc1ccc(Cl)cc1N1CCN(C(=O)C2CCCN(S(=O)(=O)c3ccc(Br)s3)C2)CC1 (stereo not given) | inactive: 2.85% |
| COc1ccccc1NC(=O)CCn1cnc2ccccc2c1=O | inactive: -4.42% |
| Cc1ccc2nc(-c3ccc(Cl)c(NC(=O)c4cccnc4)c3)oc2c1 | inactive: 3.43% |
| CN(C(=O)c1cc2c(=O)oc3ccccc3c2s1)c1ccc(F)cc1 | inactive: 0.0831% |
| CCOc1ccc(NC(=O)CSc2nccn2-c2cccc(C)c2C)cc1 | inactive: -5.5% |
| CC(=O)N1CCCc2cc(S(=O)(=O)N3CCCCC3)ccc21 | inactive: -1.52% |
| CCOc1ccccc1CNC(=O)c1cc2c(=O)n(Cc3ccccc3)ccc2nc1C | inactive: -1.6% |
| CCCCn1c2ccc(F)cc2c2nnc(SCCN3CCCCC3)nc21 | inactive: -0.811% |
| CCOC(=O)C1CCN(S(=O)(=O)c2cc(-c3onc(C)c3C)ccc2OC)CC1 | inactive: 6.32% |
| Cc1ccc(OCC(=O)NCC(=O)OCc2cc(=O)n3nc(C)sc3n2)cc1 | inactive: -0.134% |
| COc1ccc(CCNC(=O)CSc2ncc3c(n2)-c2cc(Cl)ccc2N(Cc2ccccc2)S3(=O)=O)cc1OC | inactive: -2.12% |
| COc1ccc(CNC(=O)c2ccc3c(c2)N(Cc2cccc(Cl)c2)C(=O)c2ccccc2S3)c(OC)c1 | inactive: 4.69% |
| CC(C)c1ccc(NC(=O)CSC2=Nc3ccccc3C3=NC(CC(=O)NCc4ccc(F)cc4)C(=O)N23)cc1 (stereo not given) | inactive: -6.75% |
| COCCCNC(=O)CCn1c(=O)c2ccccc2n(CC(=O)Nc2c(C)cc(C)cc2C)c1=O | inactive: -4.54% |
| Cc1cccn2c(Nc3ccccc3)c(-c3ccc(N4CCOCC4)cc3)nc12 | inactive: -31.9% |
| Cc1ccc(-n2c(=O)c3cccnc3n2CC(=O)Nc2cccc(C)c2C)cc1 | inactive: 2.17% |
| CC(C)c1ccc(OC(=O)c2cc(-c3ccc4c(c3)OCCO4)on2)cc1 | inactive: -4.1% |
| CCOc1ccc(C(=O)Nc2nnc(SCc3cc(=O)c4cc(C)ccc4[nH]3)s2)cc1 | inactive: -1.62% |
| COc1cccc2sc(N(Cc3cccnc3)C(=O)COc3ccccc3)nc12 | inactive: -5.91% |
| Cc1nn(-c2ccccc2)c(OC(=O)c2ccccc2F)c1S(=O)(=O)c1ccccc1 | inactive: -14.7% |
| COc1cccc(N2CCN(C(=O)c3cccc(NC(=O)c4nsc5ccccc45)c3)CC2)c1 | inactive: -6.88% |
| Cc1sc2c(c1C)c(=O)n(CCc1ccccc1)c(=O)n2Cc1ccccc1Cl | inactive: -1.69% |
| Cc1ccc(C)c(NC(=O)CSc2nc(=O)n(CCN(C)C)c3c2CCC3)c1 | inactive: 1.67% |

| SMILES | activity change, negative = inhibition |
| --- | --- |
| COc1cc(CN(C(=O)c2ccccc2[N+](=O)[O-])c2ccccn2)cc(OC)c1OC | inactive: -21.1% |
| CCn1c(=O)c2cc(C(=O)N3CCN(c4cccc(Cl)c4)CC3)sc2c2ccccc21 | inactive: -10.9% |
| CCN(CC)S(=O)(=O)c1ccc2c(c1)nc(CN(C)C(=O)c1cccc(Cl)c1)n2C | inactive: 5.95% |
| COc1ccc(CCNC(=O)C2=C(C)C(=O)OC23CCCCC3)c(OC)c1OC | inactive: -6.92% |
| CC1CCN(S(=O)(=O)c2ccc3c(c2)N(CC(=O)NCCCN2CCCCC2C)C(=O)CS3)CC1 (stereo not given) | inactive: 10.3% |
| N#Cc1ccccc1NC(=O)c1cc2c(=O)n3ccccc3nc2s1 | inactive: -13.1% |
| COc1ccc(OC)c(CNC(=O)C2CCN(S(=O)(=O)c3cn(C)cn3)CC2)c1 | inactive: -6.97% |
| COc1cc(Cl)c(C)cc1NC(=O)c1cc(CN2CCOCC2)on1 | inactive: -11.3% |
| Cc1cc(NC(=O)c2ccc3c(c2)N(Cc2cccc(Cl)c2)C(=O)c2ccccc2S3=O)ccc1Br (stereo not given) | inactive: 0.218% |
| CCc1ccc(NC(=O)CCS(=O)(=O)c2ccc3c(c2)CCN3C(C)=O)cc1 | inactive: 1.32% |
| CC1CCCN(Cc2c(O)ccc3c(=O)c(Oc4ccccc4Cl)c(C(F)(F)F)oc23)C1 (stereo not given) | inactive: 2.23% |
| Cc1ccc(S(=O)(=O)c2cn(Cc3ccccc3F)c3cc4c(cc3c2=O)OCO4)cc1 | inactive: -20.2% |
| CCC1CN(S(=O)(=O)c2cc(-c3cc(C)no3)ccc2OC)c2cc(C)ccc2O1 (stereo not given) | inactive: -8.09% |
| COc1ccc(C(=O)N(Cc2sccc2C)C2CCS(=O)(=O)C2)cc1Cl (stereo not given) | inactive: 0% |
| Cc1cc(C)c(S(=O)(=O)Nc2cc(-c3cn4ccccc4n3)ccc2C)cc1C | inactive: 2.63% |
| CCN1CCN(C(=O)c2ccc3c(c2)N(Cc2ccc(Cl)cc2)C(=O)c2ccccc2S3(=O)=O)CC1 | inactive: -14.7% |
| Cc1cc(=O)n2c(C(=O)Nc3ccc(C)c(Cl)c3)c(C(=O)Nc3ccccc3)sc2n1 | inactive: 4.43% |
| Cc1cccc(N2CCN(C(=O)C3CCN(S(=O)(=O)c4c(C)noc4/C=C/c4ccccc4F)CC3)CC2)c1C | inactive: -1.67% |
| O=C(Cn1ncc2c([nH]c3ccccc32)c1=O)Nc1cc(F)ccc1F | inactive: 6.15% |
| Cc1ccc(C(=O)c2sc(Nc3ccccc3F)c(S(=O)(=O)c3ccccc3)c2N)c(C)c1 | inactive: -10.1% |
| O=C(NCc1ccc2c(c1)OCO2)c1ccc2c(c1)N(Cc1cccc(Cl)c1)C(=O)c1ccccc1S2 | inactive: 9.03% |
| O=C(Nc1nnc(S(=O)(=O)N2CCCCCC2)s1)c1ccc(Br)cc1 | inactive: -9.5% |
